From the supplement of paper PMC6206098
± gives the uncertainty stated by the source. The sequences are guide strands of siRNAs; only the seed at positions 2 to 7 varies.

Key:
H460 = assay: cell viability relative to lipid-only control; higher = less toxic; conditions: concentration: 10 nM; 96 h; Homo sapiens
M565 = assay: as above; conditions: concentration: 10 nM; 96 h; Mus musculus
HeyA8 = assay: as above; conditions: concentration: 10 nM; 96 h; Homo sapiens
3LL = assay: cell viability relative to siNT1 control; HeyA8 human ovarian and H460 human lung cancer; M565 mouse liver and 3LL mouse lung cancer; siNT1 is a non-toxic control siRNA; higher = less toxic; conditions: concentration: 10 nM; 96 h; Mus musculus
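Wherever cell viability relative to lipid-only control is given: reverse lipid transfection in 384-well plates, in triplicate, of duplexes on a non-toxic 19mer backbone with passenger strand 2′-O-methylated at positions 1 and 2, luminescence viability read-out.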
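Wherever cell viability relative to siNT1 control is given: Luminescence-based viability of cells reverse transfected in 384-well plates with lipid-complexed siRNAs built on a non-toxic 19mer backbone whose passenger strand carries 2′-O-methyl groups at positions 1 and 2, triplicates.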

Sequence: UAUCUAUACAUGUAAACCAAA
- cell viability (H460): 63.5 ± 5.4%
- cell viability (M565): 94.3 ± 13%
- cell viability (HeyA8): 99.1 ± 7.5%
- cell viability (3LL): 120 ± 14%

Sequence: UCAUAUCACAUGUAAACCAAA
- cell viability (H460): 30.1 ± 4.7%
- cell viability (M565): 61.6 ± 17%
- cell viability (HeyA8): 75.5 ± 3%
- cell viability (3LL): 96.5 ± 9.8%

Sequence: UAAAGCUACAUGUAAACCAAA
- cell viability (H460): 51.1 ± 3%
- cell viability (M565): 61.1 ± 18%
- cell viability (HeyA8): 47.3 ± 3.5%
- cell viability (3LL): 53.4 ± 2.4%

Sequence: UCUUCCUACAUGUAAACCAAA
- cell viability (H460): 52.6 ± 1.8%
- cell viability (M565): 68.2 ± 7.7%
- cell viability (HeyA8): 65.1 ± 0.98%
- cell viability (3LL): 81.4 ± 4.1%

Sequence: UCCAUAGACAUGUAAACCAAA
- cell viability (H460): 47.7 ± 9.2%
- cell viability (M565): 56.4 ± 2.9%
- cell viability (HeyA8): 78.8 ± 3.1%
- cell viability (3LL): 84 ± 21%

Sequence: UGUGAGCACAUGUAAACCAAA
- cell viability (H460): 21.7 ± 1.5%
- cell viability (M565): 6.01 ± 3.6%
- cell viability (HeyA8): 30.1 ± 3.5%
- cell viability (3LL): 33 ± 10%

Sequence: UUACCUUACAUGUAAACCAAA
- cell viability (H460): 65.6 ± 5.4%
- cell viability (M565): 58.1 ± 12%
- cell viability (HeyA8): 61.2 ± 3.6%
- cell viability (3LL): 59.2 ± 11%

Sequence: UUGCAUAACAUGUAAACCAAA
- cell viability (H460): 79.2 ± 1.5%
- cell viability (M565): 117 ± 10%
- cell viability (HeyA8): 94.6 ± 11%
- cell viability (3LL): 100 ± 7.6%

Sequence: UGCUACAACAUGUAAACCAAA
- cell viability (H460): 63.2 ± 8.4%
- cell viability (M565): 59.2 ± 2.4%
- cell viability (HeyA8): 49.3 ± 2.4%
- cell viability (3LL): 81 ± 12%

Sequence: UUACGGGACAUGUAAACCAAA
- cell viability (H460): 58.3 ± 4.9%
- cell viability (M565): 61.5 ± 9.8%
- cell viability (HeyA8): 21.7 ± 1.7%
- cell viability (3LL): 59.2 ± 13%

Sequence: UUAGGACACAUGUAAACCAAA
- cell viability (H460): 26.9 ± 5.8%
- cell viability (M565): 87 ± 22%
- cell viability (HeyA8): 44.1 ± 2.6%
- cell viability (3LL): 81 ± 8.7%

Sequence: UAGGUCCACAUGUAAACCAAA
- cell viability (H460): 32.8 ± 12%
- cell viability (M565): 13.4 ± 0.87%
- cell viability (HeyA8): 27.1 ± 0.84%
- cell viability (3LL): 11.2 ± 2.1%

Sequence: UGUGCACACAUGUAAACCAAA
- cell viability (H460): 59 ± 8.5%
- cell viability (M565): 37.4 ± 6.8%
- cell viability (HeyA8): 34.4 ± 5.2%
- cell viability (3LL): 54.8 ± 11%

Sequence: UGGGUUUACAUGUAAACCAAA
- cell viability (H460): 80.4 ± 20%
- cell viability (M565): 40.7 ± 5.2%
- cell viability (HeyA8): 41.1 ± 2.4%
- cell viability (3LL): 94.7 ± 10%

Sequence: UCAUUCUACAUGUAAACCAAA
- cell viability (H460): 45.5 ± 3.4%
- cell viability (M565): 40.7 ± 6.3%
- cell viability (HeyA8): 83 ± 5%
- cell viability (3LL): 92.1 ± 13%

Sequence: UCCAGGGACAUGUAAACCAAA
- cell viability (H460): 39.5 ± 2.1%
- cell viability (M565): 19.3 ± 4%
- cell viability (HeyA8): 45.9 ± 3.9%
- cell viability (3LL): 35 ± 2.7%

Sequence: UUGCAGGACAUGUAAACCAAA
- cell viability (H460): 11.9 ± 1.1%
- cell viability (M565): 43.8 ± 8.8%
- cell viability (HeyA8): 18.4 ± 0.9%
- cell viability (3LL): 30.8 ± 6.3%

Sequence: UAAUUCUACAUGUAAACCAAA
- cell viability (H460): 99 ± 8.4%
- cell viability (M565): 53.7 ± 9%
- cell viability (HeyA8): 76.4 ± 4.8%
- cell viability (3LL): 83.8 ± 2.1%

Sequence: UCUUCGGACAUGUAAACCAAA
- cell viability (H460): 78.4 ± 11%
- cell viability (M565): 77 ± 8.5%
- cell viability (HeyA8): 70.9 ± 5.6%
- cell viability (3LL): 91.4 ± 22%

Sequence: UUACUUCACAUGUAAACCAAA
- cell viability (H460): 55.7 ± 5.6%
- cell viability (M565): 50.3 ± 3.3%
- cell viability (HeyA8): 63.5 ± 5.6%
- cell viability (3LL): 29.4 ± 3%

Sequence: UGCAACUACAUGUAAACCAAA
- cell viability (H460): 44.4 ± 4%
- cell viability (M565): 31.4 ± 13%
- cell viability (HeyA8): 46.3 ± 2.7%
- cell viability (3LL): 9.16 ± 4.3%

Sequence: UGGCGCGACAUGUAAACCAAA
- cell viability (H460): 38.6 ± 3.7%
- cell viability (M565): 28.1 ± 3.9%
- cell viability (HeyA8): 25.4 ± 1.4%
- cell viability (3LL): 47.9 ± 3.9%

Sequence: UUUAGCCACAUGUAAACCAAA
- cell viability (H460): 38.2 ± 4.6%
- cell viability (M565): 30.7 ± 1.8%
- cell viability (HeyA8): 55.3 ± 7.2%
- cell viability (3LL): 10.5 ± 1.5%

Sequence: UAACCGCACAUGUAAACCAAA
- cell viability (H460): 66.2 ± 6.9%
- cell viability (M565): 15.8 ± 1.4%
- cell viability (HeyA8): 36.8 ± 10%
- cell viability (3LL): 68.8 ± 3.5%

Sequence: UAGUCACACAUGUAAACCAAA
- cell viability (H460): 47.3 ± 7.9%
- cell viability (M565): 27.9 ± 5.1%
- cell viability (HeyA8): 32.4 ± 2.1%
- cell viability (3LL): 37.6 ± 7.9%

Sequence: UGACUCGACAUGUAAACCAAA
- cell viability (H460): 54 ± 11%
- cell viability (M565): 20.4 ± 2.9%
- cell viability (HeyA8): 77.9 ± 6.5%
- cell viability (3LL): 19 ± 3.1%

Sequence: UGCUCUCACAUGUAAACCAAA
- cell viability (H460): 47.1 ± 5.7%
- cell viability (M565): 31.9 ± 8.5%
- cell viability (HeyA8): 71.5 ± 2.1%
- cell viability (3LL): 15.7 ± 6.8%

Sequence: UCUGUUAACAUGUAAACCAAA
- cell viability (H460): 54.9 ± 5.7%
- cell viability (M565): 58.6 ± 10%
- cell viability (HeyA8): 77.5 ± 0.79%
- cell viability (3LL): 97.3 ± 14%

Sequence: UGCUGACACAUGUAAACCAAA
- cell viability (H460): 39.7 ± 2.6%
- cell viability (M565): 19.5 ± 2.7%
- cell viability (HeyA8): 24.8 ± 2.4%
- cell viability (3LL): 9.09 ± 5.3%

Sequence: UGGCCCAACAUGUAAACCAAA
- cell viability (H460): 64.2 ± 7.6%
- cell viability (M565): 41.4 ± 0.71%
- cell viability (HeyA8): 49.5 ± 7.6%
- cell viability (3LL): 15.4 ± 7%
